The results in this text go back to the supplement of paper PMC12230231.

± gives the standard deviation of the averaged measurements. Restriction of a single-cycle SIVsab GFP reporter by TRIM5α v1-loop variants in CRFK cells. Human variants: read share among cells still uninfected after two challenges over input, higher = gained restriction. Rhesus variants: share among infected cells over input, higher = lost restriction. Reporter dose not given per row. No active / inactive call per row; the paper calls a change when both replicates lie above its controls (mean + 2 SD of stop or wild-type variants, or the top frameshift score). Residues outside the varied loop are taken from Swiss-Prot. The paper reads the human single-substitution scores as noise; they and the rhesus combinations repeat poorly (rank correlation 0.3 to 0.4), indel scores repeat only for the top variants, rhesus substitutions well (0.9).

For the series, the system named is SIVsab (simian immunodeficiency virus of sabaeus monkeys), single-cycle GFP reporter, in CRFK cells. In words: enrichment among uninfected cells over input (fold); higher = stronger restriction. As to conditions: library: insertions and deletions. How it is done: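 Pools of CRFK cells expressing variants of the TRIM5α v1 loop were challenged with the single-cycle reporter, sorted by GFP and sequenced; mean of two replicates.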
“MASGILVNVKEEVTCPICLELLTQPLSLDCGHSFCQACLTANHKKSMLDKGESSCPVCRISYQPENIRPNRHVANIVEKLREVKLSPEGQKVDHCARHGEKLLLFCQEDGKVICWLCERSQEHRGHHTFLTEEVAREYQVKLQAALEMLRQKQQEAEELEADIREEKASWKTQIQYDKTNVLADFEQLRDILDWEESNELQNLEKEEEDILKSLTNSETEMVQQTQSLRELISDLEHRLQGSVMELLQGVDGVIKRTENVTLKKPETFPKNQRRVFRAPDLKGMLEVFRELTDVRRYWVDVTVAPNNISCAVISEDKRQVSSPKPQIIYGARGTRYQTFVNFNYCTGFNYCTGILGSQSITSGKHYWEVDVSKKTAWILGVCAGFQPDAMCNIEKNENYQPKYGYWVIGLEEGVKCSAFQDSSFHTPSVPFIVPLSVIICPDRVGVFLDYEACTVSFFNITNHGFLIYKFSHCSFSQPVFPYLNPRKCGVPMTLCSPSS [human TRIM5α, 6-codon duplication at 342]” displayed an enrichment of 0.685 ± 0.56.

On to “MASGILVNVKEEVTCPICLELLTQPLSLDCGHSFCQACLTANHKKSMLDKGESSCPVCRISYQPENIRPNRHVANIVEKLREVKLSPEGQKVDHCARHGEKLLLFCQEDGKVICWLCERSQEHRGHHTFLTEEVAREYQVKLQAALEMLRQKQQEAEELEADIREEKASWKTQIQYDKTNVLADFEQLRDILDWEESNELQNLEKEEEDILKSLTNSETEMVQQTQSLRELISDLEHRLQGSVMELLQGVDGVIKRTENVTLKKPETFPKNQRRVFRAPDLKGMLEVFRELTDVRRYWVDVTVAPNNISCAVISEDKRQVSSPKPQIIYGARGTRYQTFVNFNYCTGICTGILGSQSITSGKHYWEVDVSKKTAWILGVCAGFQPDAMCNIEKNENYQPKYGYWVIGLEEGVKCSAFQDSSFHTPSVPFIVPLSVIICPDRVGVFLDYEACTVSFFNITNHGFLIYKFSHCSFSQPVFPYLNPRKCGVPMTLCSPSS [human TRIM5α, 4-codon duplication at 345]”, for which the enrichment was 0.787 ± 0.38. Turning to “MASGILVNVKEEVTCPICLELLTQPLSLDCGHSFCQACLTANHKKSMLDKGESSCPVCRISYQPENIRPNRHVANIVEKLREVKLSPEGQKVDHCARHGEKLLLFCQEDGKVICWLCERSQEHRGHHTFLTEEVAREYQVKLQAALEMLRQKQQEAEELEADIREEKASWKTQIQYDKTNVLADFEQLRDILDWEESNELQNLEKEEEDILKSLTNSETEMVQQTQSLRELISDLEHRLQGSVMELLQGVDGVIKRTENVTLKKPETFPKNQRRVFRAPDLKGMLEVFRELTDVRRYWVDVTVAPNNISCAVISEDKRQVSSPKPQIIYGARGTRYQTFVNFNYCTGIFNYCTGILGSQSITSGKHYWEVDVSKKTAWILGVCAGFQPDAMCNIEKNENYQPKYGYWVIGLEEGVKCSAFQDSSFHTPSVPFIVPLSVIICPDRVGVFLDYEACTVSFFNITNHGFLIYKFSHCSFSQPVFPYLNPRKCGVPMTLCSPSS [human TRIM5α, 7-codon duplication at 342]”, the enrichment was 0.377 ± 0.33. The figure for “MASGILVNVKEEVTCPICLELLTQPLSLDCGHSFCQACLTANHKKSMLDKGESSCPVCRISYQPENIRPNRHVANIVEKLREVKLSPEGQKVDHCARHGEKLLLFCQEDGKVICWLCERSQEHRGHHTFLTEEVAREYQVKLQAALEMLRQKQQEAEELEADIREEKASWKTQIQYDKTNVLADFEQLRDILDWEESNELQNLEKEEEDILKSLTNSETEMVQQTQSLRELISDLEHRLQGSVMELLQGVDGVIKRTENVTLKKPETFPKNQRRVFRAPDLKGMLEVFRELTDVRRYWVDVTVAPNNISCAVISEDKRQVSSPKPQIIYGARGTRYQTFVNFNYCTGILCTGILGSQSITSGKHYWEVDVSKKTAWILGVCAGFQPDAMCNIEKNENYQPKYGYWVIGLEEGVKCSAFQDSSFHTPSVPFIVPLSVIICPDRVGVFLDYEACTVSFFNITNHGFLIYKFSHCSFSQPVFPYLNPRKCGVPMTLCSPSS [human TRIM5α, 5-codon duplication at 345]” is 0.346 ± 0.44; for “MASGILVNVKEEVTCPICLELLTQPLSLDCGHSFCQACLTANHKKSMLDKGESSCPVCRISYQPENIRPNRHVANIVEKLREVKLSPEGQKVDHCARHGEKLLLFCQEDGKVICWLCERSQEHRGHHTFLTEEVAREYQVKLQAALEMLRQKQQEAEELEADIREEKASWKTQIQYDKTNVLADFEQLRDILDWEESNELQNLEKEEEDILKSLTNSETEMVQQTQSLRELISDLEHRLQGSVMELLQGVDGVIKRTENVTLKKPETFPKNQRRVFRAPDLKGMLEVFRELTDVRRYWVDVTVAPNNISCAVISEDKRQVSSPKPQIIYGARGTRYQTFVNFNYCTGILFNYCTGILGSQSITSGKHYWEVDVSKKTAWILGVCAGFQPDAMCNIEKNENYQPKYGYWVIGLEEGVKCSAFQDSSFHTPSVPFIVPLSVIICPDRVGVFLDYEACTVSFFNITNHGFLIYKFSHCSFSQPVFPYLNPRKCGVPMTLCSPSS [human TRIM5α, 8-codon duplication at 342]” it is 0.531 ± 0.65. The figure for “MASGILVNVKEEVTCPICLELLTQPLSLDCGHSFCQACLTANHKKSMLDKGESSCPVCRISYQPENIRPNRHVANIVEKLREVKLSPEGQKVDHCARHGEKLLLFCQEDGKVICWLCERSQEHRGHHTFLTEEVAREYQVKLQAALEMLRQKQQEAEELEADIREEKASWKTQIQYDKTNVLADFEQLRDILDWEESNELQNLEKEEEDILKSLTNSETEMVQQTQSLRELISDLEHRLQGSVMELLQGVDGVIKRTENVTLKKPETFPKNQRRVFRAPDLKGMLEVFRELTDVRRYWVDVTVAPNNISCAVISEDKRQVSSPKPQIIYGARGTRYQTFVNFNYCTGILGCTGILGSQSITSGKHYWEVDVSKKTAWILGVCAGFQPDAMCNIEKNENYQPKYGYWVIGLEEGVKCSAFQDSSFHTPSVPFIVPLSVIICPDRVGVFLDYEACTVSFFNITNHGFLIYKFSHCSFSQPVFPYLNPRKCGVPMTLCSPSS [human TRIM5α, 6-codon duplication at 345]” is 0.858 ± 0.86; for “MASGILVNVKEEVTCPICLELLTQPLSLDCGHSFCQACLTANHKKSMLDKGESSCPVCRISYQPENIRPNRHVANIVEKLREVKLSPEGQKVDHCARHGEKLLLFCQEDGKVICWLCERSQEHRGHHTFLTEEVAREYQVKLQAALEMLRQKQQEAEELEADIREEKASWKTQIQYDKTNVLADFEQLRDILDWEESNELQNLEKEEEDILKSLTNSETEMVQQTQSLRELISDLEHRLQGSVMELLQGVDGVIKRTENVTLKKPETFPKNQRRVFRAPDLKGMLEVFRELTDVRRYWVDVTVAPNNISCAVISEDKRQVSSPKPQIIYGARGTRYQTFVNFNYCTGILGFNYCTGILGSQSITSGKHYWEVDVSKKTAWILGVCAGFQPDAMCNIEKNENYQPKYGYWVIGLEEGVKCSAFQDSSFHTPSVPFIVPLSVIICPDRVGVFLDYEACTVSFFNITNHGFLIYKFSHCSFSQPVFPYLNPRKCGVPMTLCSPSS [human TRIM5α, 9-codon duplication at 342]” it is 0.579 ± 0.82; for “MASGILVNVKEEVTCPICLELLTQPLSLDCGHSFCQACLTANHKKSMLDKGESSCPVCRISYQPENIRPNRHVANIVEKLREVKLSPEGQKVDHCARHGEKLLLFCQEDGKVICWLCERSQEHRGHHTFLTEEVAREYQVKLQAALEMLRQKQQEAEELEADIREEKASWKTQIQYDKTNVLADFEQLRDILDWEESNELQNLEKEEEDILKSLTNSETEMVQQTQSLRELISDLEHRLQGSVMELLQGVDGVIKRTENVTLKKPETFPKNQRRVFRAPDLKGMLEVFRELTDVRRYWVDVTVAPNNISCAVISEDKRQVSSPKPQIIYGARGTRYQTFVNFNYCTGILGNYCTGILGSQSITSGKHYWEVDVSKKTAWILGVCAGFQPDAMCNIEKNENYQPKYGYWVIGLEEGVKCSAFQDSSFHTPSVPFIVPLSVIICPDRVGVFLDYEACTVSFFNITNHGFLIYKFSHCSFSQPVFPYLNPRKCGVPMTLCSPSS [human TRIM5α, 8-codon duplication at 343]” it is 0.443 ± 0.41. As for “MASGILVNVKEEVTCPICLELLTQPLSLDCGHSFCQACLTANHKKSMLDKGESSCPVCRISYQPENIRPNRHVANIVEKLREVKLSPEGQKVDHCARHGEKLLLFCQEDGKVICWLCERSQEHRGHHTFLTEEVAREYQVKLQAALEMLRQKQQEAEELEADIREEKASWKTQIQYDKTNVLADFEQLRDILDWEESNELQNLEKEEEDILKSLTNSETEMVQQTQSLRELISDLEHRLQGSVMELLQGVDGVIKRTENVTLKKPETFPKNQRRVFRAPDLKGMLEVFRELTDVRRYWVDVTVAPNNISCAVISEDKRQVSSPKPQIIYGARGTRYQTFVNFNYCTGILGSCTGILGSQSITSGKHYWEVDVSKKTAWILGVCAGFQPDAMCNIEKNENYQPKYGYWVIGLEEGVKCSAFQDSSFHTPSVPFIVPLSVIICPDRVGVFLDYEACTVSFFNITNHGFLIYKFSHCSFSQPVFPYLNPRKCGVPMTLCSPSS [human TRIM5α, 7-codon duplication at 345]”, the figure is 0.313 ± 0.44; as for “MASGILVNVKEEVTCPICLELLTQPLSLDCGHSFCQACLTANHKKSMLDKGESSCPVCRISYQPENIRPNRHVANIVEKLREVKLSPEGQKVDHCARHGEKLLLFCQEDGKVICWLCERSQEHRGHHTFLTEEVAREYQVKLQAALEMLRQKQQEAEELEADIREEKASWKTQIQYDKTNVLADFEQLRDILDWEESNELQNLEKEEEDILKSLTNSETEMVQQTQSLRELISDLEHRLQGSVMELLQGVDGVIKRTENVTLKKPETFPKNQRRVFRAPDLKGMLEVFRELTDVRRYWVDVTVAPNNISCAVISEDKRQVSSPKPQIIYGARGTRYQTFVNFNYCTGILGSNYCTGILGSQSITSGKHYWEVDVSKKTAWILGVCAGFQPDAMCNIEKNENYQPKYGYWVIGLEEGVKCSAFQDSSFHTPSVPFIVPLSVIICPDRVGVFLDYEACTVSFFNITNHGFLIYKFSHCSFSQPVFPYLNPRKCGVPMTLCSPSS [human TRIM5α, 9-codon duplication at 343]”, 0.866 ± 0.048.

The sequence “MASGILVNVKEEVTCPICLELLTQPLSLDCGHSFCQACLTANHKKSMLDKGESSCPVCRISYQPENIRPNRHVANIVEKLREVKLSPEGQKVDHCARHGEKLLLFCQEDGKVICWLCERSQEHRGHHTFLTEEVAREYQVKLQAALEMLRQKQQEAEELEADIREEKASWKTQIQYDKTNVLADFEQLRDILDWEESNELQNLEKEEEDILKSLTNSETEMVQQTQSLRELISDLEHRLQGSVMELLQGVDGVIKRTENVTLKKPETFPKNQRRVFRAPDLKGMLEVFRELTDVRRYWVDVTVAPNNISCAVISEDKRQVSSPKPQIIYGARGTRYQTFVNFNYCTGILGSQCTGILGSQSITSGKHYWEVDVSKKTAWILGVCAGFQPDAMCNIEKNENYQPKYGYWVIGLEEGVKCSAFQDSSFHTPSVPFIVPLSVIICPDRVGVFLDYEACTVSFFNITNHGFLIYKFSHCSFSQPVFPYLNPRKCGVPMTLCSPSS [human TRIM5α, 8-codon duplication at 345]” returned an enrichment of 0.366 ± 0.13.
